From PubChem BioAssay AID1030 (National Center for Advancing Translational Sciences (NCATS), 2008)
The whole screen tested about 220,000 compounds, of which about 16,000 (7.3%) were called active. Inconclusive means that the source gave no clear call. Such entries were picked first, then a sample of the others. The call rests on the fitted dose curve; in most records, active means well fitted inhibition curve with a large enough effect (not every such curve was filed as active); inconclusive means small, poorly fitted or top-dose-only effect, or another doubt; inactive means no such curve, though single readings can be large or run the other way. No potency is given beside an inconclusive call; the fits are too rough.

What follows are compounds tested against Aldehyde dehydrogenase 1A1 (Homo sapiens) (UniProt P00352) (assay: qHTS Assay for Inhibitors of Aldehyde Dehydrogenase 1 (ALDH1A1)). Settings: Purified ALDH1A1, NADH fluorescence, propionaldehyde substrate; series mostly up to 75.3 µM.
Potency means the concentration at half of the fitted maximal effect; tags describe the fitted curve by direction and shape.

Chain of UniProt P00352 (P00352 whole entry, looked up): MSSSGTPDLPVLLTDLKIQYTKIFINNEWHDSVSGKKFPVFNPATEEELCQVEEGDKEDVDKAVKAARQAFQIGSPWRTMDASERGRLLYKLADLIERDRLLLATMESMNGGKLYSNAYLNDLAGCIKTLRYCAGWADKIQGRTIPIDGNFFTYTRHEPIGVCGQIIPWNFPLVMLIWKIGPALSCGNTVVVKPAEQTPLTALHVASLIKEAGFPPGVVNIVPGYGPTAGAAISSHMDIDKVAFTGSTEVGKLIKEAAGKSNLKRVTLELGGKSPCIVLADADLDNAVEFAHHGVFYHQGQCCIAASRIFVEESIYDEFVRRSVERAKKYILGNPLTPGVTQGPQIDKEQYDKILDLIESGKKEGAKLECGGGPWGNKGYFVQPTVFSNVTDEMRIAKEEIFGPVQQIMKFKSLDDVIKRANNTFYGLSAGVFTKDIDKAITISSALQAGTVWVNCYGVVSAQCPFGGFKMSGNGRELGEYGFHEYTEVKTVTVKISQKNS

Row | SMILES | Potency
1 | O=C1OC2(c3ccccc3)C3CCCC2C13 | inconclusive [inhibitor, partial curve]
2 | CCOc1cccc(C(=O)NC2CCCCC2)c1 | inactive
3 | COc1ccc(-n2c(COc3ccc(C)cc3)nnc2SCC(N)=O)cc1 | inconclusive [inhibitor, single point]
4 | COc1cccc(-n2c(Cc3cc(=O)[nH]c(=O)[nH]3)nnc2SCC(=O)N2CCCCCC2)c1 | inconclusive [inhibitor, single point]
5 | COc1cccc(-c2ccc3ncnc(NCCNC(C)=O)c3c2)c1 | inconclusive [inhibitor, single point]
6 | S=c1[nH]nc(COc2ccccc2)n1-c1ccccc1 | inactive
7 | O=S(=O)(C/C(=C/CO)S(=O)(=O)c1ccccc1)c1ccccc1 | active: 12.6 µM
8 | O=C(Nc1cccc2ccccc12)c1nn(C23CC4CC(CC(C4)C2)C3)cc1[N+](=O)[O-] | inconclusive [inhibitor, partial curve]
9 | O=C(/C=C/c1ccccc1)Nc1ccc2c(c1)OCCO2 | inconclusive [inhibitor, single point]
10 | Cc1ccc2nc(-c3ccc(N4C(=O)CC(N5CCC(C(N)=O)CC5)C4=O)cc3)sc2c1 (centres undefined) | inconclusive [inhibitor, full curve]
11 | CCCCC[n+]1ccn(-c2nc3ccccc3nc2[N-]S(=O)(=O)c2ccc(C)cc2)c1 | inconclusive [inhibitor, partial curve]
12 | Cc1cccc(OCC(=O)NC(Cc2c[nH]c3ccccc23)C(=O)O)c1C (centres undefined) | inactive
13 | CSc1nnc2c(n1)OC1(Nc3ccccc3-2)C(=O)Nc2ccccc21 (centres undefined) | inconclusive [inhibitor, partial curve, poor fit]
14 | Cc1c(Nc2cc(N3CCCCCC3)c3nonc3c2[N+](=O)[O-])c(=O)n(-c2ccccc2)n1C | inactive
15 | C=CCC1(N(C(C)=O)c2ccccc2)CCCCC1 | inconclusive [inhibitor, single point]
16 | O=C(Nc1cc(Cl)c(O)c(Cl)c1)C1CCCO1 (centres undefined) | inconclusive [inhibitor, single point]
17 | Cc1cc(N2C(=O)C=CC2=O)c([N+](=O)[O-])cc1C | active: 0.794 µM
18 | CCOc1cc(N2CCOCC2)c(OCC)cc1NC(=O)CC12CC3CC(CC(C3)C1)C2 | active: 4.47 µM
19 | COc1ccc(/C=N/c2c(-c3ccco3)nc3ccccn23)cc1OC | inconclusive [inhibitor, single point]
20 | CC(=O)Nc1ccc2oc(-c3ccccc3)nc2c1 | inconclusive [inhibitor, partial curve]
21 | Cc1ccc(NNC2CC(=O)N(c3cccc(Cl)c3)C2=O)cc1 (centres undefined) | active: 25.1 µM
22 | S=C(NCc1cccs1)Nc1ccccc1 | inconclusive [inhibitor, single point]
23 | CCC12CN3CC(CC)(CN(C1)C3c1c(O)ccc3ccccc13)C2=O (centres undefined) | inconclusive [inhibitor, partial curve]

Row | SMILES | Potency
24 | O=C(N/N=C/c1cccc(C(F)(F)F)c1)c1cc2c(s1)-c1ccccc1CC2 | inconclusive [inhibitor, partial curve]
25 | CCOc1ccccc1N(C(=O)c1ccco1)C(C(=O)NC1CCCC1)c1cccnc1 (centres undefined) | inactive
26 | O=C(CN1C(=O)/C(=C\c2ccc(F)cc2)Oc2ccccc21)N1CCN(c2ccccn2)CC1 | inconclusive [inhibitor, single point]
27 | Cc1cc(F)ccc1NCc1ccncc1 | inactive
28 | COc1ccc(N2CCN(C(=O)CCNS(=O)(=O)c3cccs3)CC2)cc1 | inactive
29 | O=C(/C=C/c1ccccc1)N/C(=C/c1ccccc1)C(=O)N1CCCCC1 | active: 14.1 µM
30 | O=C(OCc1nc2scc(-c3ccccc3)c2c(=O)[nH]1)c1cccc([N+](=O)[O-])c1 | inconclusive [inhibitor, full curve]
31 | CC(C)OCCCNc1ncnc2c1[nH]c1ccc(F)cc12 | inconclusive [inhibitor, single point]
32 | CC(C)[C@@H](CC(=O)N[C@@H]1CCNC[C@H]1C(=O)N[C@H](CC(=O)N[C@@H](CCC(=O)O)CC(=O)O)Cc1c[nH]c2ccccc12)NC(=O)C[C@H](CO)NC(=O)[C@@H]1CCCC[C@H]1N | inconclusive [inhibitor, single point]
33 | Cc1ccc(S(=O)(=O)NCCC(=O)Nc2nccs2)cc1 | inconclusive [inhibitor, single point]
34 | CCCCN(c1ccccc1)S(=O)(=O)N(C)C | inactive
35 | COc1ccccc1-c1cc(Nc2ccn[nH]2)ncn1 | inconclusive [inhibitor, single point]
36 | COc1ccc(Cc2nnc(SCC(=O)c3ccc(OC)cc3)o2)cc1 | inconclusive [inhibitor, single point]
37 | CCOC(=O)c1ccc(NC(=S)NCCC2=CCCCC2)cc1 | inconclusive [inhibitor, partial curve]
38 | CCOc1cccc(/C=C/c2ccc3ccccc3n2)c1OC(C)=O | inconclusive [inhibitor, partial curve]
39 | CC(C)NC(=O)c1cc2cc(Br)ccc2oc1=O | inconclusive [inhibitor, partial curve]
40 | C/C(=N\Nc1ccc(C(=O)O)cc1)c1ccc(-n2ccnc2)cc1 | inconclusive [inhibitor, single point]
41 | O=C(NCCOCCOCCNC(=O)c1ccccc1)c1ccccc1 | inactive
42 | Cc1oc(C)c2c(=O)ccc3c(c12)OC(N)=C(C#N)C3c1ccccc1Cl (centres undefined) | active: 25.1 µM
43 | Cc1cc[n+](-c2[nH]c(=O)sc2/C=N/NC(=O)c2ccccc2[O-])cc1C | inconclusive [inhibitor, single point]
44 | Cc1c(C(=O)NCc2ccccc2)c(-c2ccccc2)nn1-c1ccccc1 | inconclusive [inhibitor, single point]
45 | C=CCOC(=O)COc1ccc2c(C)c(CC)c(=O)oc2c1 | inconclusive [inhibitor, partial curve]
46 | Cc1nn(Cc2ccc(Cl)c(Cl)c2)c(C)c1NC(=O)c1cc(C2CC2)on1 | inconclusive [inhibitor, single point]

Row | SMILES | Potency
47 | O=C(NCC1CCN(S(=O)(=O)c2ccccc2)CC1)Nc1ccccc1 | active: 28.2 µM
48 | O=C(Nc1ccccc1O)c1ccccc1O | inactive
49 | Cc1cc(C)c2nc(SCC(=O)NNC(=O)c3ccco3)c(C)cc2c1 | inconclusive [inhibitor, partial curve, poor fit]
50 | O=C(C1=C(O)C(=O)N(Cc2ccco2)C1c1cccnc1)c1cc2ccccc2o1 (centres undefined) | active: 14.1 µM
51 | CN(CC(=O)Nc1cccc(F)c1)CC(=O)Nc1ccc(Cl)cc1[N+](=O)[O-] | inconclusive [inhibitor, single point]
52 | Cc1cc(N2CCCC2=O)ccc1S(=O)(=O)N1CCOCC1 | inconclusive [inhibitor, partial curve]
53 | CCc1ccccc1NC(=S)N(CCCN1CCOCC1)Cc1cccs1 | inconclusive [inhibitor, partial curve]
54 | CCOc1ccc(-c2nc(C#N)c(NCc3ccco3)o2)cc1 | inconclusive [inhibitor, single point]
55 | CCCN(CCC)S(=O)(=O)c1ccc(Cl)c(OC)c1 | inactive
56 | Cc1ccc(NS(=O)(=O)c2ccc3[nH]c(=O)sc3c2)cc1 | inconclusive [inhibitor, single point]
57 | O=C(Cc1ccc(S(=O)(=O)N2CCCCC2)s1)Nc1ccc(F)c(F)c1 | inconclusive [inhibitor, single point]
58 | CC1=C(C(=O)OC2CCCCC2)C(c2ccc(C)o2)C2=C(CC(C)(C)CC2=O)N1 (centres undefined) | inconclusive [inhibitor, partial curve]
59 | S=C(NC1CC2CCC1C2)N1CCN(c2cccc(Cl)c2)CC1 (centres undefined) | inconclusive [inhibitor, single point]
60 | CCOC(=O)CCNC(=O)N1CCCC(CNS(=O)(=O)c2cccs2)C1 (centres undefined) | inconclusive [inhibitor, single point]
61 | CC(C)n1c2ccccc2c2nnc(SCC(=O)Nc3ccccc3C(=O)O)nc21 | inconclusive [inhibitor, single point]
62 | COc1ccc(NC(C)=O)cc1NC(C)c1nc2sc(C)c(C)c2c(=O)[nH]1 (centres undefined) | inconclusive [inhibitor, single point]
63 | Oc1ccc(-c2nc3ccccn3c2NCc2ccc3c(c2)OCO3)cc1 | inconclusive [inhibitor, partial curve]
64 | COCCN=c1scc(-c2ccco2)n1/N=C/c1ccc(O)c(O)c1O | active: 8.91 µM
65 | Nc1sc(-c2ccccc2)cc1C(=O)O | inconclusive [inhibitor, partial curve]
66 | N#Cc1cccc(-c2ccc3ncnc(NCc4cccs4)c3c2)c1 | inconclusive [inhibitor, single point]
67 | O=C(O)C(Cc1c[nH]c2ccccc12)N1C(=O)c2ccccc2C1=O (centres undefined) | inactive
68 | CCOc1cc(CC(=O)N[C@@H](CC(C)C)c2ccccc2N2CCCCC2)ccc1C(=O)O | inactive
69 | CC1CCc2sc(C(=O)N/N=C/C3CCCCC3)cc2C1 (centres undefined) | active: 11.2 µM
